# Reference: article PMC4336329 (PLoS ONE, 2015)
# Screen size: about 310,000 compounds; about 2,200 (0.71%) showed an effect of 50% or more. Effects have a minus sign here. The list shows a part of the results.
# Molecular target: human ether-à-go-go-related gene (hERG) potassium channel (human, UniProt Q12809)
# Assay: primary screen, population patch clamp on CHO cells stably expressing hERG
# Sequence of human ether-à-go-go-related gene (hERG) potassium channel (Q12809 whole entry, looked up): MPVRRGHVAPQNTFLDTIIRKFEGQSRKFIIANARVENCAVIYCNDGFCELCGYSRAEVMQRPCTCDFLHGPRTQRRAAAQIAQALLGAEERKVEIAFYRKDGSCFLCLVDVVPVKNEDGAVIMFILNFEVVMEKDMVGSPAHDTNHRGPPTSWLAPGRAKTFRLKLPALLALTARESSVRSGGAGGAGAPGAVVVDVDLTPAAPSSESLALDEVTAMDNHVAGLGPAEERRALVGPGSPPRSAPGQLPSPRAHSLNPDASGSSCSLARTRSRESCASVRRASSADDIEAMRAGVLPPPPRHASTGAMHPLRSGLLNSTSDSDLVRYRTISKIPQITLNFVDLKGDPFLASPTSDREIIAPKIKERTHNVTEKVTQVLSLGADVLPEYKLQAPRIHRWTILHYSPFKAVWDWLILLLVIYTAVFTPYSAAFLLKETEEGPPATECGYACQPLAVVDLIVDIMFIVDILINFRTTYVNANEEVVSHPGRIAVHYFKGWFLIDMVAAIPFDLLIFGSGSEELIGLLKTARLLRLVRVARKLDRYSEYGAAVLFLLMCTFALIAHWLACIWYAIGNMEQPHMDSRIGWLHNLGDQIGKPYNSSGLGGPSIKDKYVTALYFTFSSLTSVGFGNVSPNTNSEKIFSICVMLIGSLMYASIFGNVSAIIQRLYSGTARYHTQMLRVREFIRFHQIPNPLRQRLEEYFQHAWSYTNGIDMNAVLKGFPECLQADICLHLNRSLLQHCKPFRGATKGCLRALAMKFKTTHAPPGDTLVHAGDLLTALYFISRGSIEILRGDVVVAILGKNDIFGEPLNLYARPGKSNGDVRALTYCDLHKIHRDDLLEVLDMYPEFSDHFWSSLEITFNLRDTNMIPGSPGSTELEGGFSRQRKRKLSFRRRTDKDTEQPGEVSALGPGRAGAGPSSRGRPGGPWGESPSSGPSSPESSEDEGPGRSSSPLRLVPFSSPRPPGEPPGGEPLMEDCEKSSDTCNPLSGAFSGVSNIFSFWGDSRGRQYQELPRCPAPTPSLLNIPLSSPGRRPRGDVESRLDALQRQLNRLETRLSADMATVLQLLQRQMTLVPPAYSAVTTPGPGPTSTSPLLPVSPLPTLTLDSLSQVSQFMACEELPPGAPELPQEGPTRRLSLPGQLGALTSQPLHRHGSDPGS
row,SMILES,"hERG current change (%, negative = inhibition) at 1uM"
1,Cc1ccc2c(c1)nc(-n1nc(C)cc1C)c1nnnn12,9.29%
2,Cn1c(CNC(=O)c2ccc(Cl)cc2)nnc1SCC(=O)NC1CCCC1,8.43%
3,COc1cccc(/C=N/NC(=O)c2ccc3nc[nH]c3c2)c1O,3.26%
4,CCOC(=O)COc1ccc(Br)cc1/C=C\c1[nH]c(=O)[nH]c(=O)c1[N+](=O)[O-],6.81%
5,CCc1nnc(NC(=O)C(CC)CC)s1,-1.38%
6,CCOC(=O)c1ccc(-n2c(CN3CCC(O)CC3)nc3ccc([N+](=O)[O-])cc3c2=O)cc1,13%
7,CCCS(=O)(=O)N1CCCC(C(=O)Oc2ccccc2Cl)C1 (stereo not drawn),13.7%
8,Cc1ccc(C2N=C(N)Nc3nc4ccccc4n32)cc1 (stereo not drawn),15.3%
9,Cc1ccc(NC(=O)Nc2cnccn2)cc1Cl,9.04%
10,CC1CC1c1ccc(/C=C(\C#N)C(=O)Nc2ccc(Cl)cc2Cl)o1 (stereo not drawn),-4.11%
11,CCOc1ccccc1N(CC(=O)Nc1ccc2c(c1)OCCO2)S(C)(=O)=O,6.44%
12,Cc1ccc(C(=O)OCC(=O)Nc2c(C)n(C)n(-c3ccccc3)c2=O)cc1[N+](=O)[O-],10.5%
13,CCCCN(C(=O)c1c(C)[nH]c(C(=O)OCC)c1C)c1ccccc1,1.54%
14,O=C1CC(N2CCN(c3ccc(S(=O)(=O)N4CCCC4)cc3)CC2)C(=O)N1c1ccc(F)cc1 (stereo not drawn),3.64%
15,COc1ccc(C2Nc3ccccc3C(=O)N2NS(C)(=O)=O)c(OC)c1 (stereo not drawn),29.7%
16,O=C(CN1C(=O)c2cccc([N+](=O)[O-])c2C1=O)NCc1ccccc1,-8.98%
17,O=C(Nc1ccc(S(=O)(=O)Nc2nccs2)cc1)c1cc(-c2ccncc2)nc2ccccc12,6.92%
18,CSc1nn2c(C)c(C)c(C)nc2c1C#N,0.978%
19,CCOC(=O)c1cnc(SC)nc1Nc1cccc2ccccc12,1.8%

row,SMILES,"hERG current change (%, negative = inhibition) at 1uM"
1,COc1ccc(CN(C)CC2CCCN(CCc3ccc(F)cc3)C2)cc1OC (stereo not drawn),-8.47%
2,CCOC(=O)c1nc(Nc2ccccc2)c2ccccc2n1,-8.82%
3,C=CCNC(=O)CN1c2cccc3cccc(c23)S1(=O)=O,14.7%
4,COc1ccc(S(=O)(=O)N2CCN(Cc3cccc(OC)c3OC)CC2)cc1,9.88%
5,CCN(CC(=O)NCc1cccs1)C(=O)CCCOc1ccc(C(C)(C)C)cc1,-0.644%
6,CS(=O)(=O)Nc1ccccc1C(=O)NCc1ccccc1Cl,8.64%
7,O=C(COC(=O)c1ccccc1[N+](=O)[O-])NNC(=O)c1cccs1,6.17%
8,COc1ccc(N2C(=O)C3CCCCC3C2=O)cc1NC(=O)c1ccccc1 (stereo not drawn),14.3%
9,CC(NC(=O)CCNS(=O)(=O)c1ccccc1)c1ccccc1 (stereo not drawn),7%
10,CCOC(=O)c1c(NC(=O)CSc2nc3c(c(=O)n(C)c(=O)n3C)n2CC)sc(C)c1C,9.17%
11,C=CCN1C(=O)c2ccc(C(=O)NCCc3ccc(F)cc3)cc2C1=O,13.1%
12,O[C@H]1[C@H](O)[C@@H](O)CN2CC[C@H](O)[C@H]12,15.9%
13,CC(=O)n1cc(/C=N/NC(=O)c2ccc(Cl)cc2)c2ccccc21,13.4%
14,COc1ccc(OCc2cc(C(=O)N3CCN(CC4CC4)CC3)no2)c(Cl)c1,15.3%
15,COc1ccc(NC(=O)COC(=O)C2CC2)cc1S(=O)(=O)N1CCCCC1,-5.13%
16,CC(C)[C@H](NC(=O)Nc1ccc2c(c1)OCCO2)C(=O)O,8.52%
17,Cc1ccc(CN(C)C(=O)c2cccc(S(=O)(=O)N3CCc4ccccc4C3)c2)o1,7.64%
18,CCOC(=O)C1=C(C)Nc2ncnn2C1c1cccs1 (stereo not drawn),12.9%
19,N#C/C(=C\c1c(N2CCCCCC2)nc2ccccn2c1=O)C(=O)NC1CCS(=O)(=O)C1 (stereo not drawn),-2.42%

row,SMILES,"hERG current change (%, negative = inhibition) at 1uM"
1,Cc1ccc(C2C(C(=O)c3cccs3)=C(O)C(=O)N2CCN2CCOCC2)o1 (stereo not drawn),-8.77%
2,COc1ccc(-c2cc(=O)oc3cc(OCC(=O)NCC4CCC(C(=O)O)CC4)ccc23)cc1 (stereo not drawn),12.4%
3,CC(=O)OC1=C(C#N)Cn2ccc3cccc1c32,9.07%
4,CCN1C(=O)CC(N2CCC(C(=O)N3CCCCCC3)CC2)C1=O (stereo not drawn),11.6%
5,CC(=O)N1N=C(c2cccs2)CC1c1cccs1 (stereo not drawn),6.89%
6,O=C(/C=C/Nc1ccc(S(=O)(=O)Nc2ncccn2)cc1)c1ccc(Cl)c(Cl)c1,9.43%
7,C=CCC(CC=C)(NC(=O)c1ccccc1C)c1ccccc1,13.8%
8,O=S(=O)(NCCc1ccncc1)c1ccc(Br)cc1,3.96%
9,C/C(=N\NC(N)=O)c1cc(Cl)cc(Cl)c1O,13.8%
10,O=C(CN1CCC(NC(=O)c2cccc(F)c2)CC1)Nc1ccc(Br)cc1,-53.9%
11,NNc1nc2ccccc2nc1C(F)(F)F,11.9%
12,Cc1cc(C(=O)NCCN2CCCCC2C)n(-c2ccccc2)n1 (stereo not drawn),7.55%
13,O=C(NNC(=O)C1CCCN(c2ncccn2)C1)c1ccc(F)cc1 (stereo not drawn),8.67%
14,CC1CCCCC1NC1=NCCS1 (stereo not drawn),12.3%
15,Cc1ccc(C(C)C)c(OCC(O)CN2CCN(CCO)CC2)c1.Cl (stereo not drawn),4.68%
16,O=C(NCC1CCCO1)c1cccc(NC(=O)c2ccco2)c1 (stereo not drawn),4.75%
17,Cc1ccc(/C=N/NC(=O)CNC(=O)c2cccc([N+](=O)[O-])c2C)o1,14.9%
18,CCOC(=O)Cn1ncc2c(=O)oc3ccccc3c21,8.99%
19,CC1CN(CC(O)COc2ccc(C#N)cc2)CCN1CC(O)COc1ccc(C#N)cc1 (stereo not drawn),-86.2%
